Test results from PMC12136788.
This is one part of the list.

T1: UNK ZnF1-3 (human, UniProt Q9C0B0 31-174)
T1 sequence: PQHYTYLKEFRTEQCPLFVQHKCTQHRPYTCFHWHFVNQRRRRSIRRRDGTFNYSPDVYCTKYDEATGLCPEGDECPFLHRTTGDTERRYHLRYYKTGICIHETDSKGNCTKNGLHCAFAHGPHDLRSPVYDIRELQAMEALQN

B1: chr4:17841332:17841333:+_ENSG00000109805_ENST00000514176|hu_mus|FALSE|FALSE (ssRNA)
RNA: GGGAGUUCUACAGUCCGACGAUCUUUUGUAUAAACCCGAUUUUCUGGUGAGCAUGGACUUGUUAAGAUCUCAUUGCAAAUUUUUAUAGCCAAGUUGUCAUGUACUGUUAAGGCCUGAUAAUCCUGAGAAUUCUUUGCCUUAGGCAACAGAGGAUUGAGCAUCA
B2: 197150131_197157425_1671_CDS_ENSG00000177888_ENST00000367405|human|control|control (ssRNA)
RNA: GGGAGUUCUACAGUCCGACGAUCUUUUCCACAGAUAAAGCAAGUCCAUUUUCUCUUUCCACCAUGAGUACAUUCUAUAUGACGUUUCAAAUUUCCAGUGUCGUUAAACUGGCGACCACAUAUAUCACAUGGAAAAGGACCCAGCAACAGAGGAUUGAGCAUCA
B3: chr1:109605286:109605287:-_ENSG00000197780_ENST00000461096|hu_mus|hu_hu_hu_mus_True|1_38 (ssRNA)
RNA: GGGAGUUCUACAGUCCGACGAUCAAGUUUCAGAGUAACAUUCAGUAACCUCUUUAAAUGCAAUUAUCCUUAUUAUAAGCUAAGCAGAAUAAUAAUUUAAUACAUAGAGUGAACUACACACAAAGCCUGAACCGCGAAACUACACAACAGAGGAUUGAGCAUCA
B4: chr4:76721835:76721836:+_ENSG00000138768_ENST00000264904|hu_mus|hu_hu_hu_mus_True|28_38 (ssRNA)
RNA: GGGAGUUCUACAGUCCGACGAUCGUUUGGCUGGGGUUUCUGAGACGCUCUGGAAUAUAACUCAUGUUUGCUAAUAAAUCCUAGUUUCUCUAUGAAAUCUCUUUGCCAAUCCUCUUCCUCUAUUAGUUGCUUUAGUUUCUCUUUCAACAGAGGAUUGAGCAUCA
B5: chr12:48362563:48362564:+_ENSG00000134291_ENST00000256686|hu_hu|hu_hu_hu_mus_False|38_98 (ssRNA)
RNA: GGGAGUUCUACAGUCCGACGAUCUCCGUCAAGCCCUUCAAGCCCCACUUGCGGGGGAAACUGUAAUCACUUUGUAUGGGGAAGGAAAAGAAACGCCAACACACUUUCAAAAAGCGGGGGUGGGGUGAGGCGGGAGGGGGAGGUCAACAGAGGAUUGAGCAUCA
B6: chr6:109703465:109703466:-_ENSG00000135535_ENST00000310786|hu_hu|FALSE|FALSE (ssRNA)
RNA: GGGAGUUCUACAGUCCGACGAUCAGUGGUGACCAGCGGGAGGGACGUCACCGGCGCCGAGGUUACGUUGGAGAUGGGCGCUAAAGUCGUCACGUUCGGGUGCUGGGUCGUGUUCUUGUCCGCGGACAGCACGCAGAGCACGCCCAACAGAGGAUUGAGCAUCA
B7: chr2:78758850:78758851:+_ENSMUSG00000027011_ENSMUST00000028398|mus_mus|FALSE|FALSE (ssRNA)
RNA: GGGAGUUCUACAGUCCGACGAUCAUCCAGGCAGAUGACUCCCUGACUGUUGAUGUUGCAGUGAUAGAUUCUGGUACGGAAAGUAACCUUUGGUGGCUUAAAUGGAUAAUCUGAAGAAAAUGUGAUAUCCAGAAAAAAAACACCCAACAGAGGAUUGAGCAUCA
B8: chr4:148551591:148551592:-_ENSMUSG00000063077_ENSMUST00000060537|mus_hu|mus_mus_mus_hu_False|1_18 (ssRNA)
RNA: GGGAGUUCUACAGUCCGACGAUCACCUGACAAAAUUAAAUAUCCCUGUAAAUUAGACAAUAAGCAGCAGGCAACAAAGUCUUUGCUUUGGAAUAUGUGCCAGGAAAAGUCAUCUUGUAGACCCCAAUCAAGAGACACAACCAUCAACAGAGGAUUGAGCAUCA
B9: chr3:123074269:123074270:-_ENSMUSG00000028114_ENSMUST00000029759|perfect_dup|motif|central (ssRNA)
RNA: GGGAGUUCUACAGUCCGACGAUCGCGUCUUCUACCAAGACAAAAAUGCUCAAUUAUAUGAAAAAUUUCUACAGGUUUUUCGGUAUUGCCAAUUUCAGGUUCUUCUGUGAUAAUUAAGUCAAUGUCAACAUUAGCAUGAAUGAACAACAGAGGAUUGAGCAUCA
B10: chr3:55757038:55757039:-_ENSMUSG00000027799_ENSMUST00000029374|mus_hu|motif|central (ssRNA)
RNA: GGGAGUUCUACAGUCCGACGAUCCAUUGGAGCAACAGUUUGUACAGCUGGAAGGUUUUUGCUAGUAGCACCAUUCACAAAACGGGAAGAGGAGGAAGAGGAGGAGGACCCUGAAUCCACGGCACCUGUUGUAUUAAUCAUACUCAACAGAGGAUUGAGCAUCA
B11: chr11:77340908:77340909:-_ENSG00000074201_ENST00000525064|hu_hu|FALSE|FALSE (ssRNA)
RNA: GGGAGUUCUACAGUCCGACGAUCACUUCGGUCCCUGGAUAAUGCAUGUAAACUAAUGGUGGGGUAUUCCAGUGAGAAUCCUAAUCCAGAGCCAUCUAACCAAGACAGGCGGCUCUCAGCGAUGUAAAGGGUACCAGUGCCGAGCAACAGAGGAUUGAGCAUCA
B12: 14672338_14672458_75_3pUTR_ENSMUSG00000024642_ENSMUST00000052011|mouse|control|control (ssRNA)
RNA: GGGAGUUCUACAGUCCGACGAUCCAUUUCCUUUUCUUCCUUCCUGUUUUUUUAGCCCCAAAUUGAAGGGGAUUAUAAAAAUAAAAGAGCGAAACGCUUGCGGCUUUUUAAAAUUCUCUUUCAAACUCUGCGAACACCACCUCACAACAGAGGAUUGAGCAUCA
B13: chr6:41757443:41757444:+_ENSG00000214736_ENST00000398881|hu_mus|hu_hu_hu_mus_False|8_38 (ssRNA)
RNA: GGGAGUUCUACAGUCCGACGAUCGAACCGUGCAGAGGCAACAUCUCAGCCGACACUGGGGGAUGGGGGGGCAGUGGGGGGGGGUUCAGGCAAGGAGAAGAAAAGUGCUUCAGCUGCCACUCAGGUAGCUGCCAUCAGUCACAGCAACAGAGGAUUGAGCAUCA
B14: chr1:187196858:187196859:+_ENSMUSG00000026615_ENSMUST00000046514|mus_mus|FALSE|FALSE (ssRNA)
RNA: GGGAGUUCUACAGUCCGACGAUCAACAUCCCACUUGGUGCCAACUGAGCGGAAGGCCUGCUGGGCCUCAAGAAAGCCAAACCAGCGUUUAACGUGGACUAGAGUUUUGUUCUGUUUCAAGUGUUCCUGCCAUGCAGCACUUCCCAACAGAGGAUUGAGCAUCA

biological target: T1, UNK ZnF1-3; assay: nsRBNS (natural sequence RNA bind-n-seq); RBNS binding buffer (assumed for nsRBNS): 25 mM Tris pH 7.5, 150 mM KCl, 3 mM MgCl2, 0.01% Triton X-100, 500 ug/ml BSA, 20 U/ml SUPERase-In, 4 C; UNK is unkempt and MSI1 is Musashi-1; names of the RNAs are library labels; protein concentration not given here; high values mean tight binding

| Binder | binding signal [enrichment R] |
| --- | --- |
| B1 | 0.762 |
| B2 | 1.2 |
| B3 | 0.664 |
| B4 | 0.455 |
| B5 | 2.31 |
| B6 | 0.53 |
| B7 | 1.38 |
| B8 | 1.7 |
| B9 | 1.08 |
| B10 | 1.85 |
| B11 | 1.48 |
| B12 | 2.12 |
| B13 | 1.69 |
| B14 | 1.51 |
